Over roughly 33,000 sequences, “E-score (-0.5 to 0.5)” has its median near -0.054; the highest 2% begin near 0.39. The list shows a part of the results.
These sequences were tested against Ylr278c (UniProt Q05854) (assay: PBM E-score (8-mer binding enrichment) (E-score (-0.5 to 0.5)); higher = stronger / more preferred TF binding; most listed sequences are background and not binding sites). Conditions: protein concentration: 200 nM; construct: GST-DNA-binding domain.
Procedure, shortened: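 Full-length yeast transcription factors or their DNA-binding domains, GST-tagged and expressed with PURExpress, were applied at about 100-200 nM to universal all-10-mer Agilent arrays. These arrays had been made double-stranded by primer extension on fresh or once-stripped slides. Detection used fluorescent anti-GST, normalisation used masliner, and E-scores for ungapped eight-base words pooled with reverse complements came from the Universal PBM Analysis Suite.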
ATAATACG was tested, and the “PBM E-score” value was 0.116.
For AACGGAAA, the “PBM E-score” value was 0.374.
For CAGGCCCG, the “PBM E-score” value was 0.153.
ACATACTG was tested, and the “PBM E-score” value was -0.0691.
In the case of CACTCACG, the “PBM E-score” value is reported as -0.00908.
In the case of CGGTGCTC, the “PBM E-score” value is reported as 0.183.
For AGTCTCGA, the “PBM E-score” value was -0.174.
For CTTCTCCC, the “PBM E-score” value was -0.0156.
GTCCAGCA was tested, and the “PBM E-score” value was -0.31.
In the case of CTGATACC, the “PBM E-score” value is reported as -0.119.
In the case of AGAAATCG, the “PBM E-score” value is reported as 0.0562.
With GACTCATA the “PBM E-score” value was -0.164.
With CGGCGCTC the “PBM E-score” value was 0.248.
With TCGCGTAA the “PBM E-score” value was 0.209.
In the case of GGACCCAC, the “PBM E-score” value is reported as 0.167.
With CACGAGCG the “PBM E-score” value was -0.0956.
With GGCACAAA the “PBM E-score” value was 0.0585.
With GACAAAGA the “PBM E-score” value was 0.00873.
For CAGTGTAA, the “PBM E-score” value was -0.0366.
CACTCCTC was tested, and the “PBM E-score” value was 0.0388.
With CTACGACC the “PBM E-score” value was -0.182.
In the case of AGCTCCGG, the “PBM E-score” value is reported as 0.458.
With AACCATTA the “PBM E-score” value was -0.0521.
With AGGAGCTC the “PBM E-score” value was -0.122.
CCGGTCTA was tested, and the “PBM E-score” value was 0.153.
For GAGGATGA, the “PBM E-score” value was -0.021.
In the case of AGACCATC, the “PBM E-score” value is reported as -0.209.
For CAGGTCTA, the “PBM E-score” value was -0.14.
For ACGGAAGA, the “PBM E-score” value was 0.169.
In the case of ATATTATA, the “PBM E-score” value is reported as -0.0766.
With ATACACCG the “PBM E-score” value was 0.296.
For CGGCCTGA, the “PBM E-score” value was 0.0818.
With AAGCGGCC the “PBM E-score” value was 0.0319.
ATTTAGAA was tested, and the “PBM E-score” value was -0.127.
For CCGTACCG, the “PBM E-score” value was 0.182.
In the case of CTGGTCAA, the “PBM E-score” value is reported as -0.18.
For CTAGACCA, the “PBM E-score” value was -0.261.
For CAGCCCAC, the “PBM E-score” value was -0.163.
For ACTCTCGA, the “PBM E-score” value was -0.24.
With AGCTAGGG the “PBM E-score” value was -0.0339.
For ACAGTCCG, the “PBM E-score” value was 0.243.
For CGTATTAA, the “PBM E-score” value was 0.00789.
With ACCCTATG the “PBM E-score” value was -0.325.
GCGGGGCC was tested, and the “PBM E-score” value was 0.236.
For ACTAAGTC, the “PBM E-score” value was -0.0888.
In the case of CCCGGCCC, the “PBM E-score” value is reported as 0.346.
In the case of TATAAAGA, the “PBM E-score” value is reported as -0.114.
ACTATCGC was tested, and the “PBM E-score” value was -0.0819.
With CTTCTTAC the “PBM E-score” value was 0.162.
For AAAGCTGT, the “PBM E-score” value was 0.0727.
For GCCAATAA, the “PBM E-score” value was 0.0194.
AATGAACG was tested, and the “PBM E-score” value was -0.131.
With AATACGAG the “PBM E-score” value was -0.102.
With AACCTACC the “PBM E-score” value was -0.0252.
In the case of AACCATCC, the “PBM E-score” value is reported as 0.0527.
For CAGGCTCC, the “PBM E-score” value was 0.206.
In the case of AACAAAAT, the “PBM E-score” value is reported as -0.0226.
With AGGAGGAC the “PBM E-score” value was -0.294.
With CCGCTCTA the “PBM E-score” value was 0.127.
CAATGGGG was tested, and the “PBM E-score” value was -0.0833.
In the case of CTGGGGGA, the “PBM E-score” value is reported as -0.162.
With CATAGTTC the “PBM E-score” value was 0.0125.
CGAACACC was tested, and the “PBM E-score” value was 0.122.
GCATGGCC was tested, and the “PBM E-score” value was -0.0448.
In the case of GCCTTCCC, the “PBM E-score” value is reported as 0.00264.
For TCGTACGA, the “PBM E-score” value was -0.335.
For ATATAATC, the “PBM E-score” value was -0.0692.
In the case of AACCACGG, the “PBM E-score” value is reported as 0.108.
In the case of ATTGGGCC, the “PBM E-score” value is reported as 0.0763.
For CCCAGCGG, the “PBM E-score” value was 0.0963.
In the case of CGGCATTA, the “PBM E-score” value is reported as 0.405.
With CTGGGTAC the “PBM E-score” value was -0.195.
AGTGGAAC was tested, and the “PBM E-score” value was -0.0633.
With AGGTCACT the “PBM E-score” value was -0.209.
For ACGGTAGG, the “PBM E-score” value was -0.0726.
For AGCGAACC, the “PBM E-score” value was -0.0308.
In the case of TCCGTAGA, the “PBM E-score” value is reported as 0.313.
TAAACCTA was tested, and the “PBM E-score” value was -0.0876.
For CAGGCTTA, the “PBM E-score” value was -0.12.
In the case of AATCATCC, the “PBM E-score” value is reported as 0.0555.
With AAACCGTA the “PBM E-score” value was 0.018.
With ATTCGCTA the “PBM E-score” value was -0.0743.
AGGGCGCC was tested, and the “PBM E-score” value was 0.0842.
For CATACGGC, the “PBM E-score” value was 0.157.
For GATATAGA, the “PBM E-score” value was -0.12.
For CTCATCAA, the “PBM E-score” value was 0.0123.
In the case of CGATAGCA, the “PBM E-score” value is reported as -0.0488.
In the case of ATGATCTA, the “PBM E-score” value is reported as -0.072.
For CTCAACCA, the “PBM E-score” value was -0.0458.
For CGACCCCA, the “PBM E-score” value was 0.138.
ACGGTTGG was tested, and the “PBM E-score” value was -0.169.
For ACCAGTAC, the “PBM E-score” value was -0.14.
ACTAGGCT was tested, and the “PBM E-score” value was -0.193.
With CACGCACC the “PBM E-score” value was 0.0301.
For AGGCTAGA, the “PBM E-score” value was -0.205.
In the case of CTGTCTGC, the “PBM E-score” value is reported as -0.222.
In the case of CCTTCTAG, the “PBM E-score” value is reported as -0.271.
In the case of ATGAGGTG, the “PBM E-score” value is reported as -0.151.
For TGGACACA, the “PBM E-score” value was 0.0272.
With GCAGGGTA the “PBM E-score” value was -0.00141.
For AATCCCTG, the “PBM E-score” value was -0.0994.
For ACGATAAC, the “PBM E-score” value was -0.0698.
For ACTACACT, the “PBM E-score” value was -0.111.
In the case of ATCGCTCG, the “PBM E-score” value is reported as 0.138.
In the case of TTTATAAA, the “PBM E-score” value is reported as 0.165.
ACTGGAAC was tested, and the “PBM E-score” value was -0.12.
With AGTCGATG the “PBM E-score” value was -0.136.
For AAGCCAGT, the “PBM E-score” value was -0.336.
For CGATGATC, the “PBM E-score” value was 0.00539.
In the case of ATGTCACG, the “PBM E-score” value is reported as -0.073.
With AGGGAGGC the “PBM E-score” value was -0.0871.
ACTCGCGG was tested, and the “PBM E-score” value was 0.177.
With AAGACGAG the “PBM E-score” value was -0.0694.
GAGGCAAA was tested, and the “PBM E-score” value was -0.0207.
In the case of AGCGTTGA, the “PBM E-score” value is reported as -0.233.
With GACGGTGC the “PBM E-score” value was 0.0201.
For GTGGCCAC, the “PBM E-score” value was 0.0307.
With CGGTTAAA the “PBM E-score” value was 0.191.
In the case of ACTGCATC, the “PBM E-score” value is reported as -0.142.
In the case of GAGGTTGA, the “PBM E-score” value is reported as -0.0324.
With ATTATAAA the “PBM E-score” value was 0.0367.
For CCTAGCGA, the “PBM E-score” value was -0.306.
For CAGACCAC, the “PBM E-score” value was -0.196.
With TACCGAGA the “PBM E-score” value was 0.0909.
AAGCCCCG was tested, and the “PBM E-score” value was 0.313.
With GACTCAGA the “PBM E-score” value was -0.161.
AATTTGAC was tested, and the “PBM E-score” value was 0.051.
With TTGAGCAA the “PBM E-score” value was -0.179.
For GCAGAGAC, the “PBM E-score” value was -0.26.
For GAGTACGC, the “PBM E-score” value was -0.131.
In the case of CCTCCTGC, the “PBM E-score” value is reported as -0.182.
With CGCATTAA the “PBM E-score” value was 0.0928.
In the case of AACCTTGG, the “PBM E-score” value is reported as -0.0903.
For CTGGACAA, the “PBM E-score” value was -0.278.
CAACCCAG was tested, and the “PBM E-score” value was -0.119.
In the case of ACCACCGA, the “PBM E-score” value is reported as 0.11.
CGACAAAA was tested, and the “PBM E-score” value was 0.109.
AGTGCGAT was tested, and the “PBM E-score” value was 0.117.
In the case of TCTGCCCA, the “PBM E-score” value is reported as -0.151.
In the case of GGTTTTGA, the “PBM E-score” value is reported as 0.0531.
In the case of GGTTCAGA, the “PBM E-score” value is reported as -0.266.
With AGAGGACC the “PBM E-score” value was -0.227.
With CTTTTGGA the “PBM E-score” value was -0.0201.
CCGATACC was tested, and the “PBM E-score” value was 0.249.
For TCCAGAGA, the “PBM E-score” value was -0.212.
TCAATAAA was tested, and the “PBM E-score” value was -0.146.
In the case of CCCTCACA, the “PBM E-score” value is reported as -0.277.
In the case of ACCATCTC, the “PBM E-score” value is reported as -0.00358.
CCATATGA was tested, and the “PBM E-score” value was -0.23.
In the case of ATAGAGGC, the “PBM E-score” value is reported as -0.243.
With ATTCAGGA the “PBM E-score” value was 0.039.
For CTTCACGA, the “PBM E-score” value was -0.226.
With AGTATCGC the “PBM E-score” value was -0.102.
In the case of AAAGAACT, the “PBM E-score” value is reported as -0.108.
For GCATGGTA, the “PBM E-score” value was 0.0176.
CTTTTCGA was tested, and the “PBM E-score” value was -0.136.
GTATCGAA was tested, and the “PBM E-score” value was -0.103.
For TATTCGCA, the “PBM E-score” value was -0.112.
For CGAACAAA, the “PBM E-score” value was 0.181.
With GACCTCAA the “PBM E-score” value was -0.226.
For CAGCGAAG, the “PBM E-score” value was -0.2.
CCCACCGC was tested, and the “PBM E-score” value was 0.225.
With ATCTCCTG the “PBM E-score” value was 0.0929.
For ATTGTTCG, the “PBM E-score” value was 0.154.
GCACGCCA was tested, and the “PBM E-score” value was -0.116.
CAACCGAG was tested, and the “PBM E-score” value was -0.0652.
With GCTCGAAA the “PBM E-score” value was 0.0908.
With GCGGCGCC the “PBM E-score” value was 0.289.
TCTCTAAA was tested, and the “PBM E-score” value was 0.00577.
With AGGTAGGA the “PBM E-score” value was -0.132.
In the case of GACCTAAA, the “PBM E-score” value is reported as 0.0762.
For GAAAGCAA, the “PBM E-score” value was 0.145.

Source: the supplement of paper PMC3334620
